This is an account of results in patent publication US20060034941A1, “Organ preconditioning, arrest, protection, preservation and recovery” (priority 2002, published 2006).

For the assay, the system named is in situ rat heart, regional ischaemia by left coronary artery (LCA) occlusion. Kind of assay: In vivo rat model of regional myocardial ischaemia (30 min left coronary artery ligation, 120 min reperfusion). The following applies: for episodes of VF during reperfusion: 30 min reperfusion; for area of necrosis (AN/LV): % of left ventricle, after 120 min reperfusion; for animals experiencing at least one episode of VT at reperfusion: within the first minute of reperfusion / immediately following ischemia.

Setting [1] is: 30 min ischaemia, surviving rats.

In the case of `CCN(CC)CC(=O)Nc1c(C)cccc1C` [Lido-only, lidocaine], the “episodes of VF during reperfusion” value is given as “no episodes of VF”, the “area of necrosis (AN/LV)” value turned out to be 33±3% and the “animals experiencing at least one episode of VT at reperfusion” value (shortened to “animals experiencing … at reperfusion”) was determined as 16%. The “died during ischaemia from ventricular fibrillation” value (2 mg/kg bolus of lidocaine before ischaemia (before adenosine infusion)) was 29%. Also, under setting [1], the “VT+VF duration during ischaemia” value turned out to be 37 ± 22 s, the “animals experiencing ventricular fibrillation (VF) during ischaemia” value is 33%, the “animals experiencing ventricular tachycardia (VT) during ischaemia” value worked out at 83% and the “duration of VT during ischaemia” value is 31 ± 18 s. In addition, under setting [1], the “episodes of VF during ischaemia” value amounted to 2±1 episodes and the “episodes of VT during ischaemia” value was 23±11 episodes. Besides, the “infarct size increase above saline-controls” value (vs saline-controls) is listed as “about 8%”.

Turning to `Nc1ncnc2c1ncn2[C@@H]1O[C@H](CO)[C@@H](O)[C@H]1O` [Ado-only, adenosine], the “episodes of VF during reperfusion” value is “no episodes of VF”, the “area of necrosis (AN/LV)” value stood at 33±7% and the “animals experiencing … at reperfusion” value came to 75%. Further, under “30 min LCA occlusion”, the “deaths during ischaemia (number of animals or words)” value is on record as 4 of the 8. The “died during ischaemia from ventricular fibrillation” value (30 min LCA occlusion, % of animals of the group) worked out at 50%. Under setting [1], the “animals experiencing ventricular fibrillation (VF) during ischaemia” value came out at 100%, the “animals experiencing ventricular tachycardia (VT) during ischaemia” value is 50%, the “duration of VT during ischaemia” value came out at 27 ± 18 s and the “episodes of VF during ischaemia” value was 3±2 episodes. Under setting [1], the “episodes of VT during ischaemia” value worked out at 11±7 episodes. The “duration of VT during reperfusion” value (first 30 min of reperfusion) was 11 ± 8 s. Moreover, the “VT+VF duration during reperfusion” value (reperfusion) came to 11 ± 8 s.

Regarding `OC[C@H]1O[C@@H](n2cnc3c(NC4CCCC4)nc(Cl)nc32)[C@H](O)[C@@H]1O` [CCPA, 2-chloro-N^6-cyclopentyladenosine], the “area of necrosis (AN/LV)” value was determined as 24±3% and the “animals experiencing … at reperfusion” value amounted to 100%. In addition, the “deaths during ischaemia (number of animals or words)” value (30 min LCA occlusion) is “two”. Under setting [1], the “duration of VT during ischaemia” value turned out to be 56 ± 18 s. For the setting “30 min ischemia”, the “effect on VT and VF during ischemia” value is given as “virtually no fibrillation”.
